# Source: PubChem BioAssay AID360 (National Center for Advancing Translational Sciences (NCATS), 2006)
# Screen size: about 48,000 compounds; about 550 (1.1%) were called active. Another 4% or so got no clear call; they are omitted. No stated cut-off is given here; in the data, active means potency below about 15 µM; inconclusive means mostly about 16 µM to 33 µM; inactive means weaker than that. The list shows a part of the results.
# Target: Lysosomal acid glucosylceramidase (Homo sapiens) (UniProt P04062)
# Chain of UniProt P04062 (P04062 whole entry, looked up): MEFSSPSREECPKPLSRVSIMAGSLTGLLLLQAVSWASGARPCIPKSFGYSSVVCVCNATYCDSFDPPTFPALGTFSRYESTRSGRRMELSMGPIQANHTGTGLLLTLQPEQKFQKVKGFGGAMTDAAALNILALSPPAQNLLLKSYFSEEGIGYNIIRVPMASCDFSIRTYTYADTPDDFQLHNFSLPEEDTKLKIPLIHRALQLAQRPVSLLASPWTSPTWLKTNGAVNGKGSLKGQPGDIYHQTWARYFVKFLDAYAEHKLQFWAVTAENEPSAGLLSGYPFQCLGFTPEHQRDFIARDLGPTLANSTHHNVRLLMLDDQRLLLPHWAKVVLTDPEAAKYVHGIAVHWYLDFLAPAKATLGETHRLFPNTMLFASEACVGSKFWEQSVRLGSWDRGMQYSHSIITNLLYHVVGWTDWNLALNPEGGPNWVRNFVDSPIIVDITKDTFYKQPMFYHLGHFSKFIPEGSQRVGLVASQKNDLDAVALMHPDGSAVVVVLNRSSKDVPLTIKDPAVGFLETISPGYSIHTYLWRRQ
# Assay: Glucocerebrosidase;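 further: the screen sought inhibitors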
# Conditions: purified enzyme, resorufin glucoside fluorescence (screen aimed at inhibitors), 20 min; series mostly up to 77 µM
# In short: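 Wild-type enzyme at 0.2 nM final in 50mM citric acid/KH2PO4, 10mM sodium taurocholate, 0.01% tween-20, pH 5.9, with resorufin beta-D-glucopyranoside at 30 uM final. Compounds titrated, 20 min at RT, red fluorescence read; AC50 from titration.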
# Potency means the concentration at half of the fitted maximal effect.
row,SMILES,Potency
1,O=C(CS(=O)(=O)c1cn(Cc2ccccc2Cl)c2ccccc12)N1CCOCC1,inactive: > 76.9 µM
2,Cc1ccc(NS(=O)(=O)c2cc(C(=O)N3CCN(C)CC3)ccc2C)cc1,inactive: > 76.9 µM
3,O=C(CCS(=O)(=O)c1ccc(Cl)cc1)N1CCN(S(=O)(=O)c2cccs2)CC1,inactive: > 76.9 µM
4,COc1ccc(N2C(=O)CC(n3c(CCCCO)nc4ccccc43)C2=O)cc1 (centres undefined),inactive: > 76.9 µM
5,CCCCCC1CC(=O)N(Cc2ccc(Cl)cc2)C(=O)N1 (centres undefined),inactive: > 76.9 µM
6,CCOC(=O)N1CCC(NC(=O)c2cc(S(=O)(=O)N3CCOCC3)ccc2F)CC1,inactive: > 76.9 µM
7,COC(=O)c1[nH]c(C)c(/C(O)=C2\C(=O)C(=O)N(CCCN3CCOCC3)C2c2ccccn2)c1C (centres undefined),inactive: > 76.9 µM
8,O=c1[nH]c(=O)n(Cc2ccccc2)c2nc(-c3ccco3)cc(C(F)(F)F)c12,inactive: > 76.9 µM
9,CSc1ccc2nnc(-c3cccc(F)c3)n2n1,inactive: > 76.9 µM
10,CC(C)C(=O)Nc1nnc(SCC(=O)NC2CC2)s1,inactive: > 76.9 µM
11,Cc1ccc(OCc2nnc(SCC(=O)Nc3ccc4c(c3)OCO4)n2C)cc1,inactive: > 76.9 µM
12,CC(C)OCCCNc1nc2c([nH]1)c(=O)n(C)c(=O)n2C,inactive: > 76.9 µM
13,CC(C)(C)NC(=O)Cn1ccc(=N)c2ccccc21,inactive: > 76.9 µM
14,COc1ccc(Cc2nnc(SCC(=O)N3CCc4ccccc4C3)o2)cc1,inactive: > 76.9 µM
15,CC1=CC(C)(C)N2C(=O)C3(N=C(N)NC(Nc4ccccc4)=N3)c3cc(C)cc1c32 (centres undefined),inactive: > 76.9 µM
16,c1c2c(cc3sc(N4CCCCC4)nc13)OCO2,inactive: > 76.9 µM
17,Cc1ccc(Cn2c(SCc3cccnc3)nc3c2c(=O)n(C)c(=O)n3C)cc1,inactive: > 76.9 µM
18,COc1nc(OC)nc(N2CCC(C(=O)NC3CCCCCC3)CC2)n1,inactive: > 76.9 µM
19,COc1ccc(OC)c(C(=O)CSc2nnc(-c3cccnc3)n2C)c1,inactive: > 76.9 µM
20,Cc1cc2c(c(=O)n1CCN(C)C)C(c1ccc(Br)cc1)C(C#N)=C(N)O2 (centres undefined),inactive
21,O=C(c1ccc(Cn2c(=O)[nH]c3ccccc3c2=O)cc1)N1CCN(c2ccccc2)CC1,inactive: > 76.9 µM
22,CCOC(=O)N1CCN(C(=O)Cn2c(C)cc3ccccc3c2=O)CC1,inactive: > 76.9 µM
23,CCc1c(O)nc(N2CCN(Cc3ccccc3)CC2)[nH]c1=O,inactive: > 76.9 µM

row,SMILES,Potency
1,Cn1c(=O)n(CCc2ccccc2)c(=O)c2c1nc1n2CCCN1CCc1ccccc1,active: 8.99 µM
2,C=CCOc1ccc(/C(O)=C2\C(=O)C(=O)N(CCCOC)C2c2ccncc2)cc1 (centres undefined),inactive: > 76.9 µM
3,CC1(C)Oc2ccc(C(=O)NC3CCCC3)cc2N(CC(=O)NC2CCCCC2)C1=O,inactive: > 76.9 µM
4,CC(=O)NCc1cccc(CNC(C)=O)n1,inactive: > 76.9 µM
5,COC(=O)c1[nH]c2ccccc2c1NC(=O)Oc1ccccc1,inactive: > 76.9 µM
6,O=C(c1ccc2ccccc2c1)N1CCN(c2ccc(O)cc2)CC1,inactive: > 76.9 µM
7,Cc1cccc2cc(CN(CC3CCCO3)C(=O)c3ccncc3)c(=O)[nH]c12 (centres undefined),inactive: > 76.9 µM
8,COc1cccc(CN2CCCC(C(=O)N3CCCCC3)C2)c1OC (centres undefined),inactive: > 76.9 µM
9,Cc1cc(O)c(NC(=O)c2ccco2)cc1C,inactive: > 76.9 µM
10,CCOc1ccc(C(=O)NCCN(C)C)cc1,inactive: > 76.9 µM
11,O=C(CSc1nnc2ncccn12)N1CCCCCC1,inactive: > 76.9 µM
12,CN(C)S(=O)(=O)c1cccc(COC(=O)C2=COCCO2)c1,inactive: > 76.9 µM
13,COCCN1C(=O)c2ccccc2C(C(=O)N2CCN(c3ccccn3)CC2)C1c1ccc(F)cc1 (centres undefined),inactive: > 76.9 µM
14,Cc1nc(NC2=NCN(CC3CCCO3)CN2)nc2ccccc12 (centres undefined),inactive: > 76.9 µM
15,COc1ccccc1N1CC(O)=C(c2nc3ccccc3c(=O)[nH]2)C1=N,inactive
16,Cc1cccc(NC(=O)CSc2nnc(-c3ccccc3)n2N)c1C,inactive: > 76.9 µM
17,CCN1CCN(c2c(Cl)cccc2NC(=O)c2ccco2)CC1,inactive: > 76.9 µM
18,COc1ccc(-c2noc(C3CCCN(S(=O)(=O)c4ccc(C)c(Cl)c4)C3)n2)cc1OC (centres undefined),inactive: > 76.9 µM
19,COc1ccccc1N1CCN(Cc2nnnn2CCc2ccccc2)CC1,inactive: > 76.9 µM
20,O=C1c2oc3ccc(Br)cc3c(=O)c2C(c2cccnc2)N1Cc1ccco1 (centres undefined),inactive: > 76.9 µM
21,COc1cc(NC(=O)c2ccco2)c(OC)cc1NC(=O)Nc1ccc(Cl)cc1,inactive: > 76.9 µM
22,O=C(CSc1nc2c(cnn2-c2ccc(F)cc2)c(=O)[nH]1)N1CCOCC1,inactive: > 76.9 µM
23,C=CCOc1ccc(/C(O)=C2\C(=O)C(=O)N(CCOC)C2c2cccnc2)cc1 (centres undefined),inactive: > 76.9 µM

row,SMILES,Potency
1,Nc1nc(-c2cccnc2)nn1C(=O)COc1ccccc1,inactive: > 76.9 µM
2,O=C(CSc1nnc(-c2ccc(Br)cc2)o1)N1CCN(C(=O)c2ccco2)CC1,inactive: > 76.9 µM
3,CCOC(=O)N1CCN(Cc2nc3c(c(=O)n(C)c(=O)n3C)n2Cc2ccccc2C)CC1,inactive: > 76.9 µM
4,Cc1noc(C)c1CSc1nnc2sc3ccccc3n12,inactive: > 76.9 µM
5,CCOc1ccc2[nH]c(=O)c(CN(Cc3ccco3)C(=O)c3cccc(F)c3)cc2c1,inactive
6,CC1(C)CN=C(N2CCN(C3=NCC(C)(C)S3)CC2)S1,inactive: > 76.9 µM
7,Cc1cc2nnc(SC(C)C#N)n2c2ccccc12 (centres undefined),inactive: > 76.9 µM
8,COC(=O)[C@@H](NC(=O)NCc1cccc(OC)c1)C(C)C,inactive: > 76.9 µM
9,Cc1onc(-c2ccccc2)c1C(=O)Nc1ccncc1,inactive: > 76.9 µM
10,CCOC(=O)Cc1csc(NC(=O)CN2C(=O)c3ccccc3S2(=O)=O)n1,inactive: > 76.9 µM
11,CS(=O)(=O)NC1c2cccc3cccc(c23)C1N1CCOCC1 (centres undefined),inactive: > 76.9 µM
12,Cc1ccc(-c2nnn(Cc3nc(N)nc(N4CCOCC4)n3)n2)cc1,inactive: > 76.9 µM
13,COC(=O)c1ccc(OC(=O)c2ccco2)cc1,inactive: > 76.9 µM
14,O=C(CSc1nc2cc(S(=O)(=O)N3CCOCC3)ccc2o1)NC1CCCc2ccccc21 (centres undefined),inactive: > 76.9 µM
15,CCOC(=O)c1ccc(NC(=O)Cn2nnc(-c3ccccc3C)n2)cc1,inactive: > 76.9 µM
16,O=C(Cc1ccccc1)NC(NCCCN1CCOCC1)(C(F)(F)F)C(F)(F)F,inactive: > 76.9 µM
17,CNC(=O)CN(Cc1ccccc1)S(=O)(=O)c1ccccc1,inactive: > 76.9 µM
18,Cc1cc(C)n(CCc2nc3c4ccccc4n(CC(=O)Nc4ccc(Cl)cc4F)c(=O)n3n2)n1,inactive: > 76.9 µM
19,CCOC(=O)C1=C(N)OC2=C(C(=O)CC(C)(C)C2)C1c1ccoc1 (centres undefined),inactive: > 76.9 µM
20,O=C(Nc1ccc(N2CCN(C(=O)c3ccccc3)CC2)cc1)c1ccc(Br)o1,inactive: > 76.9 µM
21,COC(=O)CN(c1ccc(OC)cc1)S(=O)(=O)c1c(C)noc1C,inactive: > 76.9 µM
22,CC1=CCC2C(=O)N(c3nc(C)cc(C)n3)C(=O)C2C1 (centres undefined),inactive: > 76.9 µM
23,COc1ccc(OC)c(N2C(=O)CC(Cc3ccc(C)cc3)C2=O)c1 (centres undefined),inactive: > 76.9 µM

row,SMILES,Potency
1,COc1ccc(CNS(=O)(=O)c2ccc(OC)cc2)cc1,inactive: > 76.9 µM
2,CC(C)CN(CC(C)C)S(=O)(=O)N1CCC(C(=O)NC2CCCCCCC2)CC1,inactive: > 76.9 µM
3,Cc1cc(C(=O)CSc2nnc(-c3ccccc3F)o2)c(C)n1Cc1cccs1,inactive: > 76.9 µM
4,Cn1c(=O)oc2cc(S(=O)(=O)N3CCN(C(=O)c4ccco4)CC3)ccc21,inactive: > 76.9 µM
5,Cc1nc2ccc(S(=O)(=O)N(C)CC(=O)N3CCc4ccccc43)cc2s1,inactive: > 76.9 µM
6,CC1CN(C(=O)c2cccs2)CCN1C(=O)c1cccs1 (centres undefined),inactive: > 76.9 µM
7,COCC(=O)N(Cc1ccco1)c1nnc(C2CCOC2)s1 (centres undefined),inactive: > 76.9 µM
8,CN(C)C(=O)CN(C)S(=O)(=O)c1ccc(Cl)cc1,inactive: > 76.9 µM
9,CC1(C)CC(=O)C2=C(C1)OC(c1ccncc1)C(C#N)=C2N (centres undefined),inactive: > 76.9 µM
10,O=C(c1cc2ccccn2n1)N1CCN(c2cccc(C(F)(F)F)c2)CC1,inactive: > 76.9 µM
11,NC(=O)c1ccccc1OCC(=O)NS(=O)(=O)c1ccccc1,inactive: > 76.9 µM
12,COc1ccc2nc(SCC(N)=O)[nH]c2c1,inactive: > 76.9 µM
13,Cc1ccc2nc(NCCO)nc(-c3ccccc3)c2c1,inactive: > 76.9 µM
14,O=C(CCCN1C(=O)CCC1=O)Nc1ccc(Cl)c(C(F)(F)F)c1,inactive: > 76.9 µM
15,O=C1CC(C(=O)Nc2ccccc2)N=C(N2CCCCC2)N1 (centres undefined),inactive: > 76.9 µM
16,CC(=O)c1cc(F)c(N2CCN(C(=O)Cc3ccccc3)CC2)cc1C,inactive: > 76.9 µM
17,CN(C)CCCN1C(=O)C(=O)/C(=C(/O)c2ccncc2)C1c1cccc(Br)c1 (centres undefined),inactive: > 76.9 µM
18,Clc1ccc(Br)cc1-c1nc(-c2ccncc2)no1,inactive: > 76.9 µM
19,Cc1cc(=O)oc(C)c1C(=O)NCc1ccc(F)cc1,inactive: > 76.9 µM
20,NS(=O)(=O)c1ccc(NCc2c(F)cccc2Cl)cc1,inactive: > 76.9 µM
